PubChem BioAssay AID492949 (National Center for Advancing Translational Sciences (NCATS), 2010)
Inconclusive means that the source gave no clear call. Such entries were picked first, then a sample of the others. Potencies beside an inconclusive call are fits to weak or partial responses and may not hold up. Active and inactive are the calls of the source. Calls follow the shape of the dose curve; as a rule, active = well fitted activation curve with a large enough effect; inconclusive = small, poorly fitted or top-dose-only effect; inactive = no such curve, though single readings can be large or run the other way.

The molecules below were run against Relaxin receptor 1 (Homo sapiens) (UniProt Q9HBX9) (assay: qHTS Assay for Agonists of the Relaxin Receptor RXFP1: THP1 Hit Validation). Settings: THP1-RXFP1 cells, cAMP TR-FRET, 30 min; series mostly up to 115 µM.
Sequence of UniProt Q9HBX9 (Q9HBX9 whole entry, looked up): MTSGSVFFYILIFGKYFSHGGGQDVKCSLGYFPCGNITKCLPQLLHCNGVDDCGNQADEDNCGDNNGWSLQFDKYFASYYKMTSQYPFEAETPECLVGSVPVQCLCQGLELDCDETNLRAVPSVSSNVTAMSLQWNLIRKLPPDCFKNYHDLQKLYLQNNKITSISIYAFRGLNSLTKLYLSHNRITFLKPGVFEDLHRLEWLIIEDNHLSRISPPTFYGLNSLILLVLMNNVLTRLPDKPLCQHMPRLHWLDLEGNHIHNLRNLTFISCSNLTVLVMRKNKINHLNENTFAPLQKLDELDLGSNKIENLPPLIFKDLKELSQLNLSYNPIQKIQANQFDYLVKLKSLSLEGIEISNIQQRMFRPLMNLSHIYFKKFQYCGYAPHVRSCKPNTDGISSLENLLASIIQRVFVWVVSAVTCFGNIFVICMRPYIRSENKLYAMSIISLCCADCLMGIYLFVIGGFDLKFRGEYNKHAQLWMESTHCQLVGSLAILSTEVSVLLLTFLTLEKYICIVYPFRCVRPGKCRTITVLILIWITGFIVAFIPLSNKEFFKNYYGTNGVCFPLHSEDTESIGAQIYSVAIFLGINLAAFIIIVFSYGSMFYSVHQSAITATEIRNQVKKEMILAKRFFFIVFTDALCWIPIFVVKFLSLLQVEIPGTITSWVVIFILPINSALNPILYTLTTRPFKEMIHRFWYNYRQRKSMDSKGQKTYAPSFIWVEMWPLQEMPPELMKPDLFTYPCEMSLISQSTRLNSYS
Summary of the method: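 TR-FRET cAMP readout (signal falls as cAMP rises) in lysed RXFP1-transfected THP1 cells after 30 min compound treatment, 37C, PDE4 inhibitor present. EC50 from Hill equation, 0-100% set by buffer and 29 nM porcine relaxin.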
Also: nearly all actives have a fitted effect of over 60% in size.
Potency is read from the fitted curve at half-maximal effect; tags tell the direction and shape of the fitted curve.

Potency, inconclusive:
CCN(CC)S(=O)(=O)c1ccc2c(c1)nc(SCc1nc3ccsc3c(=O)[nH]1)n2CC 0.245 µM [activator, full curve]
Cn1c(=O)c2sccc2n2c(CCCC(=O)NCCc3ccccc3)nnc12 34.6 µM [activator, partial curve]
Cn1c2c(c(=O)n3ncnc13)CCCC2 48.9 µM [activator, partial curve]
Cn1c(=O)c2c(nc(CN3CCN(C(=O)c4ccco4)CC3)n2CCCO)n(C)c1=O 38.9 µM [activator, partial curve]
N#C/C(=C/c1ccc(OCc2ccccc2)cc1)C(=O)NC1CCCCC1 9.74 µM [activator, partial curve, poor fit]
CCOC(=O)C1CCN(C(=O)c2cc3c(=O)n4ccccc4nc3s2)CC1 38.9 µM [activator, partial curve, poor fit]
NN1C(=O)/C(=C2/Sc3ccccc3N2CCCS(=O)(=O)O)SC1=S 8.7 µM [activator, full curve]
CCOC(=O)c1nnn2c1nc(SCC(C)=O)c1ccccc12 15.5 µM [activator, full curve]
CCOc1ccccc1NC(=O)CSc1ccc2nnc(-c3cccnc3)n2n1 30.9 µM [activator, partial curve, poor fit]
CC(=O)Nc1c2c3c(cccc3n(C)c1=O)C(=O)c1ccccc1-2 17.3 µM [activator, partial curve, poor fit]
NCCNC(=O)Cc1ccc(NC(=O)Cc2ccc(Nc3ncnc4c3ncn4[C@@H]3O[C@H](CO)[C@@H](O)[C@H]3O)cc2)cc1 19.4 µM [activator, partial curve, poor fit]
O=[N+]([O-])c1cccc(COc2ncnc3cc([N+](=O)[O-])ccc23)c1 8.7 µM [activator, full curve]
Cn1c(=O)c2c(nc(Cc3ccc(N)cc3)n2C)n(C)c1=O 24.5 µM [activator, partial curve]

Potency, active:
NS(=O)(=O)c1ccc(CCNC(=O)C2CCN(c3ncnc4c3nc3n4CCCCC3)CC2)cc1 27.5 µM
COc1ccccc1CNS(=O)(=O)c1cc(CN2C(=O)c3cccnc3C2=O)ccc1OC 17.4 µM
CC1CCN(S(=O)(=O)c2ccc3nc(N4CCN(c5ccccc5)CC4)ccc3c2)CC1 15.4 µM
O=c1oc2cc(O)c(Cl)cc2c2ccccc12 8.68 µM
CC(C(=O)OCC(=O)N(C)C1(C#N)CCCCC1)N1C(=O)c2ccccc2C1=O (stereo not drawn) 15.4 µM

Potency, inactive:
Cc1ccc(C(=O)Nc2ccccc2C(N)=O)o1
O=C(Nc1ccccc1C(=O)N1CCOCC1)c1ccco1
C=CCNc1ncnc2c1ncn2C1OC(CO)C(O)C1O (stereo not drawn)
CN(C)c1ccc(NC(=O)C2C3C=CC(C3)C2C(=O)O)cc1 (stereo not drawn)
O=C(Nc1ccccc1C(=O)N1CCN(c2ccccc2)CC1)c1ccco1
O=C(Nc1ccccc1C(=O)NCCc1ccc(O)cc1)c1ccco1
Cc1ccc(CN(C)C(=O)c2ccc3c(c2)NC(=O)CS3)o1
O=C(Nc1ccccc1C(=O)N1CCNCC1)c1ccco1
O=C(Nc1ccccc1C(=O)N1CCCCC1)c1ccco1
CCN(c1ccccc1)S(=O)(=O)c1ccc(OC)c(NC(=O)C2CC(=O)N(Cc3ccccc3)C2)c1 (stereo not drawn)
CCC(=O)Nc1ccc(-n2nnnc2SCC(=O)NNC(=O)c2ccco2)cc1
Cc1cc(C)c(C(=O)CSc2n[nH]c(=O)n2C2CC2)cc1C
NC(=O)c1ccccc1NC(=O)CC12CC3CC(CC(C3)C1)C2
O=C(Nc1ccccc1C(=O)Nc1ccc(F)cc1)c1ccco1
CCN(CC)C(=O)c1cc(Cl)ccc1NC(=O)c1ccco1
O=C(Nc1ccccc1C(=O)NCc1ccc(Cl)cc1)c1ccco1
Nc1cc2ccncc2c2ccccc12
COc1ccc(S(=O)(=O)Nc2ccccn2)c(C)c1C
C=C(C)C(=O)Nc1cccc(C2=NOC3(C2)C[C@@H](C(N)=O)N(C(=O)c2ccc(Cl)cc2)C3)c1 (stereo partly drawn)
Cc1cccc(NC(=O)c2ccccc2NC(=O)C2CCCCC2)c1C
